Measurements from the BET-seq Pho4 binding data (Le et al. 2018).
This is one part of the list. Values were computed here from the reads of four pooled replicates and scatter widely.

target: T1, Pho4 (S. cerevisiae) (UniProt P07270); experiment: relative binding free energy (BET-seq); higher = weaker binding; conditions: reference: library average
T1 sequence: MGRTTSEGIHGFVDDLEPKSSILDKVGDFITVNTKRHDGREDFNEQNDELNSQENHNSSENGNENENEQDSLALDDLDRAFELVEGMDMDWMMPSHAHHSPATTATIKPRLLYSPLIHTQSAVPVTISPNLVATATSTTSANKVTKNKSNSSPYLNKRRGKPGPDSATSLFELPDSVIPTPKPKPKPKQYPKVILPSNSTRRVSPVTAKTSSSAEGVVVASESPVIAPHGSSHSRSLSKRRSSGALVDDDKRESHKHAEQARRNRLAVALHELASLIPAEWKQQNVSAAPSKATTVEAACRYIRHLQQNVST

Sequence | relative binding free energy
GACGGCACGTGTATTG | 0.09 kcal/mol
AGGGTCACGTGACTTG | 0.19 kcal/mol
CGTGACACGTGTGTGG | -0.02 kcal/mol
GGTCGCACGTGTGGGT | 0.05 kcal/mol
CTGGTCACGTGACTTT | 0.27 kcal/mol
CGTGGCACGTGCGTGT | -0.17 kcal/mol
GAATTCACGTGGTAAG | 0.36 kcal/mol
GGGATCACGTGGTTGG | 0.22 kcal/mol
GCGACCACGTGGGTGG | -0.12 kcal/mol
GGTGACACGTGGTACA | 0.12 kcal/mol
GTGGTCACGTGAATTT | 0.51 kcal/mol
ATGGGCACGTGCGGTT | -0.15 kcal/mol
TGAGTCACGTGTTTTA | 0.09 kcal/mol
TTGTCCACGTGTGGTC | 0.15 kcal/mol
AGCGTCACGTGGGTGA | -0.09 kcal/mol
GATGGCACGTGAACGG | 0.24 kcal/mol
TGTTTCACGTGATTGG | 0.39 kcal/mol
AGTTTCACGTGGGCAT | 0.14 kcal/mol
CGGATCACGTGGTGAT | 0.13 kcal/mol
GGGTTCACGTGAGGAA | 0.49 kcal/mol
TTAGTCACGTGTGGGT | 0.2 kcal/mol
TGCGGCACGTGTAAAA | 0.16 kcal/mol
GTAAGCACGTGGGTTC | -0.07 kcal/mol

Sequence | relative binding free energy
TAGTTCACGTGCTTGA | 0.38 kcal/mol
GGTGCCACGTGTGGCT | -0.07 kcal/mol
TTAGACACGTGGCGTT | 0.01 kcal/mol
GGAGGCACGTGCTGAT | -0.08 kcal/mol
GTAAGCACGTGTGATT | 0.05 kcal/mol
CGAATCACGTGGTTTG | 0.17 kcal/mol
AGGTGCACGTGTGAGA | 0.04 kcal/mol
TGTGTCACGTGTAGAC | 0.03 kcal/mol
TGAGTCACGTGAAGGT | 0.42 kcal/mol
GTTCTCACGTGTATGG | 0.16 kcal/mol
TGTCTCACGTGCGTGG | 0.06 kcal/mol
AATTTCACGTGCTTTA | 0.25 kcal/mol
TAATGCACGTGTAGAG | -0.13 kcal/mol
AAGATCACGTGGTCGT | 0.03 kcal/mol
GTATTCACGTGCAGTA | 0.26 kcal/mol
GATGCCACGTGAGGTT | 0.2 kcal/mol
ATGAACACGTGTTGTG | -0.15 kcal/mol
AATCGCACGTGGGGGG | -0.14 kcal/mol
GAGGGCACGTGTTATA | -0.06 kcal/mol
TAGTGCACGTGGTGGT | -0.11 kcal/mol
TATAGCACGTGCGGTG | -0.25 kcal/mol
AACGCCACGTGGTGTG | -0.13 kcal/mol
AATATCACGTGCGGTA | 0.14 kcal/mol

Sequence | relative binding free energy
CAAGACACGTGTGTGG | -0.04 kcal/mol
TCCGGCACGTGGGTGT | -0.3 kcal/mol
TGAGTCACGTGCGCGG | -0.19 kcal/mol
GTTATCACGTGAATAG | 0.39 kcal/mol
CGGTACACGTGGGGTT | 0.01 kcal/mol
GCTGTCACGTGCTTGT | 0.07 kcal/mol
GGGAACACGTGCTTGG | 0.19 kcal/mol
ATTTACACGTGATGGA | 0.19 kcal/mol
GAATACACGTGTGGGT | 0.15 kcal/mol
TGTTGCACGTGTCTTT | -0.09 kcal/mol
TGTAGCACGTGTGTGT | -0.04 kcal/mol
GTGACCACGTGTTTGA | 0.02 kcal/mol
TGCAACACGTGGGCGT | -0.08 kcal/mol
TAGCGCACGTGTGAGT | 0.02 kcal/mol
TGGGTCACGTGAGTTG | 0.26 kcal/mol
CTTTTCACGTGAGAGT | 0.49 kcal/mol
AAGGGCACGTGTGTAA | -0.12 kcal/mol
CAGTTCACGTGAATAG | 0.52 kcal/mol
AGTGGCACGTGTTGGC | -0.03 kcal/mol
ATAGTCACGTGTGTGG | 0.02 kcal/mol
TCAAGCACGTGGGGTT | -0.21 kcal/mol
GGGGGCACGTGAATCG | 0.29 kcal/mol
TTGGGCACGTGACAAT | -0.11 kcal/mol

Sequence | relative binding free energy
GTATGCACGTGCATTG | -0.03 kcal/mol
AGCTACACGTGATGGG | 0.29 kcal/mol
AAGTGCACGTGAATGT | 0.04 kcal/mol
TTTGGCACGTGTGAAA | 0.03 kcal/mol
TCCTGCACGTGCGTGG | 0.04 kcal/mol
GGAAGCACGTGATGGT | 0.06 kcal/mol
GTGGACACGTGTTAAT | 0.11 kcal/mol
TTATCCACGTGGAGGT | 0.05 kcal/mol
TGGAGCACGTGATAAG | 0.02 kcal/mol
AAGCGCACGTGTTATG | -0.02 kcal/mol
TGCGTCACGTGGTTGC | -0.09 kcal/mol
ACGGTCACGTGATAGT | 0.15 kcal/mol
CGTGCCACGTGTGGGA | 0.06 kcal/mol
GGAACCACGTGTTGGG | -0.04 kcal/mol
TTTGTCACGTGCGGTC | 0.14 kcal/mol
GAAGTCACGTGGTGCT | -0.04 kcal/mol
TAGGGCACGTGTTGAG | -0.05 kcal/mol
ATGGGCACGTGTGGTA | -0.11 kcal/mol
GTACGCACGTGGGGTT | -0.17 kcal/mol
ATGGTCACGTGATGTA | 0.15 kcal/mol
ATAAGCACGTGTTGGG | -0.07 kcal/mol
GAGCGCACGTGAATGG | 0.27 kcal/mol
TTGCACACGTGGTTGT | -0.1 kcal/mol

Sequence | relative binding free energy
ATTGGCACGTGGGTTC | -0.41 kcal/mol
TACGGCACGTGTAGTG | -0.03 kcal/mol
TGGATCACGTGGTATG | 0.04 kcal/mol
CTGTGCACGTGGGGTC | -0.19 kcal/mol
AGTGTCACGTGAAGCG | 0.28 kcal/mol
GGTCTCACGTGTTGAT | 0.31 kcal/mol
ATCAGCACGTGGGGTA | -0.25 kcal/mol
GTTTTCACGTGCGTAG | 0.34 kcal/mol
TGAGACACGTGTGGTC | 0.23 kcal/mol
GGAAGCACGTGCTTGG | -0.08 kcal/mol
TAACTCACGTGGGTTA | 0.02 kcal/mol
TGCGCCACGTGGTGGC | -0.2 kcal/mol
ATATTCACGTGACGGG | 0.22 kcal/mol
GTAGGCACGTGACTGT | 0 kcal/mol
TTACTCACGTGGTGTA | 0.1 kcal/mol
TGACGCACGTGGTGAA | -0.1 kcal/mol
TCAGGCACGTGAGTTA | 0.11 kcal/mol
TGTGACACGTGAGATA | 0.16 kcal/mol
GTGGGCACGTGATGGA | 0.09 kcal/mol
AGGTTCACGTGGATAA | 0.17 kcal/mol
TGTGACACGTGAGTAA | 0.12 kcal/mol
TGCCGCACGTGGTGAG | -0.11 kcal/mol
GAAGGCACGTGAGTCG | 0.21 kcal/mol
